Among all 270,000 compounds or so, about 5,800 (2.1%) were called active. The shares of active, inactive and inconclusive entries below differ from those in the screen. Calls come from the whole dose curve; as a rule, active = well fitted inhibition curve with a large enough effect; inconclusive = small, poorly fitted or top-dose-only effect; inactive = flat fitted curve, though single readings scatter. Potencies of inconclusive entries are doubtful fits and often do not repeat.
target: Microtubule-associated protein tau (Homo sapiens) (UniProt P10636); assay: qHTS for Inhibitors of Tau Fibril Formation, Thioflavin T Binding; settings: recombinant tau K18 P301L (four-repeat tau fragment), heparin-induced fibrillization, ThT fluorescence; series mostly up to 57.4 µM; note: nearly all actives have a fitted effect of over 55% in size
Summary of the method: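 Heparin-induced fibrillization of the P301L-mutant K18 repeat-domain fragment of human tau was followed by ThT binding in quantitative high-throughput format.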
% is set by controls: 0 for no effect and ±100 for the full control effect; potency is the fitted concentration of half-maximal effect; tags give direction and shape of the fitted curve.

Sequence of UniProt P10636 (P10636 whole entry, looked up, the tested form may be a part): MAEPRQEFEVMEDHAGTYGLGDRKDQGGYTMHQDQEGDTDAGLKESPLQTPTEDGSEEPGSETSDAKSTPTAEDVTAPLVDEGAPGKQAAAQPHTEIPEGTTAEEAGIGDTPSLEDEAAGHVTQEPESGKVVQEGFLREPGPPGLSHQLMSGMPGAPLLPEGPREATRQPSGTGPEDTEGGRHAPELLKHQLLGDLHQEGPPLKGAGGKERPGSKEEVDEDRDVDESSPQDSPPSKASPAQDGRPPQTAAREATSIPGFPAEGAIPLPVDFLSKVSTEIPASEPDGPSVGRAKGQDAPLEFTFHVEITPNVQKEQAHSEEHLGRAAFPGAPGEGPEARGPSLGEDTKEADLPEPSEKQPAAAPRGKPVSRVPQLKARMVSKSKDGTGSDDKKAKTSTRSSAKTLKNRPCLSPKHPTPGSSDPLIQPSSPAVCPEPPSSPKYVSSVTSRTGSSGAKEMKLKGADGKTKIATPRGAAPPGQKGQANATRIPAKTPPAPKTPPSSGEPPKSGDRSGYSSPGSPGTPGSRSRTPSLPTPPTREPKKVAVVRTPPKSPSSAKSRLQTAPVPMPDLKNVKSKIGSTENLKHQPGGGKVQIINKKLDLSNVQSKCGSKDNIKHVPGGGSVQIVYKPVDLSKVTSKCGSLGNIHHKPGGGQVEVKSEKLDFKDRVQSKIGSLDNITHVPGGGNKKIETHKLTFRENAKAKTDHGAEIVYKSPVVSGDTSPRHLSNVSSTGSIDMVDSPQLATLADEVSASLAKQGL

SMILES	Potency	activity, negative = inhibition
Cc1ccnc(N=Cc2nc(-c3ccccc3Br)oc2O)c1	inconclusive: 14.1 µM [inhibitor, partial curve]	–
CCOc1ccc(-c2cn3c(n2)sc2cc(C(=O)NCCc4ccc(OC)c(OC)c4)ccc23)cc1	inconclusive: 0.141 µM [inhibitor, full curve, poor fit]	–
CCC(=O)N1CCc2cc(S(=O)(=O)CCC(=O)N3CCN(c4ccc(C(C)=O)cc4)CC3)ccc21	inconclusive: 1.26 µM [inhibitor, full curve]	–
O=C(Nc1cc(F)ccc1F)c1cc2nc(-c3ccco3)cc(C(F)(F)Cl)n2n1	inactive	–
COC(=O)CCC(=O)OC1(C)C(=O)C2=CN(c3ccc(OC)cc3)C(c3ccc(OC)cc3)=CC2=C(Br)C1=O (stereo not drawn)	–	inactive: -17.3% [at 11.5 µM]
Cc1cc(C)c2c(n1)nn1c(C)c(CCC(=O)NCc3ccc(Cl)cc3)c(C)nc21	inconclusive: 5.01 µM [inhibitor, full curve]	–
CCOc1ccc(-c2nc(CSc3nncs3)cs2)cc1OC	inconclusive: 12.6 µM [inhibitor, partial curve]	–
Cc1nc2ccc(NC(=O)Cc3cccc(F)c3)cc2s1	inconclusive: 14.1 µM [inhibitor, single point]	–
COc1ccccc1OCC(=O)/C=C1/N(C)c2ccccc2C1(C)C	inconclusive: 14.1 µM [inhibitor, partial curve]	–
CC(=O)c1cccc(NC(=O)c2nc3ccccc3nc2N2CCCCC2)c1	inconclusive: 31.6 µM [inhibitor, single point]	–
Nc1ccc2nc(CN3CCOCC3)[nH]c2c1	inconclusive: 17.8 µM [inhibitor, single point]	–
CCOC(=O)c1ccc(NC(=S)N2CCN(S(C)(=O)=O)CC2)cc1	inconclusive: 10 µM [inhibitor, partial curve]	–
CCOC(=O)CSc1nc2cc(C(=O)N3CCC(C(N)=O)CC3)ccc2c(=O)n1-c1ccccc1	inconclusive: 8.91 µM [inhibitor, single point]	–
CCC(=O)n1nc(-c2ccc(Cl)cc2)nc1SC	inconclusive: 15.8 µM [inhibitor, partial curve]	–
Cc1ccc(C)c(CSC2=NCCN2C(=O)Cc2ccc([N+](=O)[O-])cc2)c1	inconclusive: 22.4 µM [inhibitor, single point]	–
CCOc1cc(C(=O)NCCc2csc(-c3ccc(C)cc3)n2)cc(OCC)c1OCC	inactive	–
CCOC(=O)N1CCC(NC(=O)C2CCCN(S(=O)(=O)c3ccc4c(c3)oc(=O)n4C)C2)CC1 (stereo not drawn)	inactive	–
CN(C)c1cccc(C(=O)Nc2ccc3nc4n(c(=O)c3c2)CCCCC4)c1	inconclusive: 11.2 µM [inhibitor, partial curve]	–
CCC(C)(C)NC(=O)Cn1c(=O)ccc2cc(S(=O)(=O)N3CCC(C)CC3)ccc21	inactive	–
CCOC(=O)c1c(NC(=O)/C=C\C(=O)O)sc(C)c1-c1ccccc1	inactive	–
O=C(Cn1cnc2c(nnn2Cc2ccc(Cl)cc2)c1=O)N1CCCc2ccccc21	inactive	–
Cc1ccc(S(=O)(=O)N2C(=O)/C(=C3\SC(=S)NC3=O)c3ccccc32)cc1	inconclusive: 3.55 µM [inhibitor, single point]	–

SMILES	Potency	activity, negative = inhibition
CCOc1cc(N2CCOCC2)c(OCC)cc1NC(C)C(=O)N1CCC(C)CC1 (stereo not drawn)	inconclusive: 28.2 µM [inhibitor, partial curve]	–
CCOC(=O)/C(C#N)=N/Nc1c(C)n(C)n(-c2ccccc2)c1=O	inactive	–
COc1cc(C(=O)NCC(=O)N/N=C/c2c(C)[nH]c3ccccc23)cc(OC)c1OC	inconclusive: 31.6 µM [inhibitor, single point]	–
COCCNCCCOc1ccc(C(C)(C)c2ccccc2)cc1	inactive	–
COc1ccccc1Nc1nc(NCc2ccco2)c2ccccc2n1	inconclusive: 15.8 µM [inhibitor, partial curve]	–
O=C(OCn1ncc(Cl)c(Cl)c1=O)c1ccccc1Cl	active: 14.1 µM	–
CN(C(=O)COc1ccc(C(C)(C)C)cc1)C1CCS(=O)(=O)C1 (stereo not drawn)	inactive	–
CCc1ccc(NC(=O)c2cc(-c3ccc(F)cc3)on2)cc1	inconclusive: 0.316 µM [inhibitor, full curve]	–
CC1=CCC(C(=O)O)(C(=O)N/N=C/c2cccs2)C(c2ccc(Cl)cc2)C1 (stereo not drawn)	inconclusive: 17.8 µM [inhibitor, partial curve, poor fit]	–
O=C(c1ccc([N+](=O)[O-])cc1)N1CCN(c2ccc(Nc3ccccc3)nn2)CC1	inconclusive: 28.2 µM [inhibitor, single point]	–
CC(C)CC[n+]1ccn(C2=C([O-])c3ccccc3C(=O)/C2=N\S(=O)(=O)c2ccccc2)c1	inconclusive: 22.4 µM [inhibitor, single point]	–
CCOc1ccc(CCNC(=O)CN2C(=O)c3cccnc3Oc3ccc(Cl)cc32)cc1	inactive	–
O=C(Nc1cc(S(=O)(=O)N2CCCCC2)ccc1N1CCCCC1)c1ccncc1	inconclusive: 22.4 µM [activator, partial curve]	–
O=[N+]([O-])c1nn(-c2ccc3c(c2)OCCO3)n(O)c1=NCc1ccccc1Cl	inconclusive: 3.98 µM [inhibitor, full curve]	–
O=C(CCCOc1ccccc1)N1CCN(c2ccc(F)cc2)CC1	inconclusive: 15.8 µM [inhibitor, partial curve]	–
O=C(N/N=C/c1ccncc1)c1ccc(-n2cccc2)cc1	inconclusive: 4.47 µM [inhibitor, single point]	–
CCOc1ccc(NC(=O)CSc2nc3[nH]ncc3c(=O)n2-c2ccccc2OC)cc1	inconclusive: 28.2 µM [inhibitor, single point]	–
CSc1cccc(NC(=O)Cc2ccccc2[N+](=O)[O-])c1	inactive	–
O=C(CCl)NCc1cc(-c2ccc(Cl)cc2)no1	inactive	–
CC(C)c1ccccc1NC(=O)COC(=O)CNC(=O)c1ccc(Br)cc1	inactive	–
Cc1csc(NC(=O)CSc2nnc(-c3ccccc3)o2)n1	inconclusive: 28.2 µM [inhibitor, partial curve, poor fit]	–

Reference: PubChem BioAssay AID1460 (National Center for Advancing Translational Sciences (NCATS), 2008)
